From the supplement of paper PMC7826260 come the findings set out here.

This is one part of the list. The data describe in vitro nicking of single-stranded DNA by Rep domains for 1 h at 37 °C with 3 µM enzyme; only the middle of the 90-letter strands is printed. Numbers give uncut DNA relative to the enzyme-free pool, as log2; strong cutting gives strongly negative numbers. There is no active / inactive call. The scaling is to total reads, so uncut sequences can rise above 0 when many others are cut.

Experiment in all cases: uncleaved DNA left, log2 of reads against the no-enzyme library (log2 ratio); higher = less cleavage (more negative = more Rep cleavage of the k-mer); sequences stand for … in CTCGTCCG…ACCGGAGA
The test system of assay [1] is T1, Rep nickase domain of Muscovy duck circovirus.
T1 sequence (residues 1-111 of Rep, tag left off): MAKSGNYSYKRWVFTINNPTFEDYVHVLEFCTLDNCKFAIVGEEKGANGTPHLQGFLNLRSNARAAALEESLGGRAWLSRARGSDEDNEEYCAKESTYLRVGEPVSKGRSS
On the procedure:
(§1)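 A pool of 90-nt single-stranded DNAs with seven random bases just before the constant AC of the nick site (name = the seven bases) was cut by 3 µM recombinant His6-SUMO-tagged Rep nickase domain (300 nM DNA, 50 mM HEPES pH 8.0, 50 mM NaCl, 1 mM MnCl2, 1 h, 37 °C, three replicates). Uncut DNA was amplified and sequenced.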

The subject of assay [2] is T2, Rep nickase domain of banana bunchy top virus.
T2 sequence (residues 1-94 of Rep, tag left off): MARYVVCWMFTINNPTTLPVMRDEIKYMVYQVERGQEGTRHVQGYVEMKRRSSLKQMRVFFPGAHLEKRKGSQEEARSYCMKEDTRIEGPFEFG
On the procedure:
as §1

Assay [3] deals with T3, Rep nickase domain of cabbage leaf curl virus.
T3 sequence (residues 1-116 of Rep, tag left off): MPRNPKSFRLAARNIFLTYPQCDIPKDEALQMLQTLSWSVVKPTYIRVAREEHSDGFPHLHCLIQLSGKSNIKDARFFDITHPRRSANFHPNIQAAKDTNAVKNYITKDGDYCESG
The protocol:
as §1

Assay [4] relates to T4, Rep nickase domain of chickpea chlorotic dwarf virus.
T4 sequence (residues 1-124 of Rep, tag left off): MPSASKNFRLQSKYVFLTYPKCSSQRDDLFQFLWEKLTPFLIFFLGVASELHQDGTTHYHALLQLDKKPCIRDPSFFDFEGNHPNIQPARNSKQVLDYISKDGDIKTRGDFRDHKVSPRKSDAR
The protocol: as §1
Assay [5] has as its system T5, Rep nickase domain of faba bean necrotic yellows virus.
T5 sequence (residues 1-98 of Rep, tag left off): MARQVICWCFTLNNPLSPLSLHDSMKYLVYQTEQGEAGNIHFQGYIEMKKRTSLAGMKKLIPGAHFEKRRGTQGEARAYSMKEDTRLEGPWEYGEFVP
On the procedure: as §1
In assay [6] the test system is T6, Rep nickase domain of maize striate mosaic virus.
T6 sequence (residues 1-117 of Rep, tag left off): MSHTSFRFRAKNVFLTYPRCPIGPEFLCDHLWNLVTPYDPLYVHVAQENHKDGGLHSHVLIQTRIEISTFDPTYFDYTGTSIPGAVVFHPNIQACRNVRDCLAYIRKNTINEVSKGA
On the procedure: as §1
Assay [7] concerns T7, Rep nickase domain of porcine circovirus 2.
T7 sequence (residues 2-116 of Rep, tag left off): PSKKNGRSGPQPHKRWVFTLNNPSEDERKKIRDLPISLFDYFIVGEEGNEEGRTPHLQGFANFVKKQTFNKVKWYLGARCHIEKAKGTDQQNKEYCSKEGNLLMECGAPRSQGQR
On the procedure: as §1
Assay [8] has as its system T8, Rep nickase domain of tomato golden mosaic virus.
T8 sequence (residues 1-124 of Rep, tag left off): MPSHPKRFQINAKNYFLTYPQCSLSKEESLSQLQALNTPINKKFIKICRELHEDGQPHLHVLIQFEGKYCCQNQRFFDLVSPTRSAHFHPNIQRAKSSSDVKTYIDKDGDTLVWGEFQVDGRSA
The protocol:
as §1

Assay [9] relates to T9, Rep nickase domain of tomato yellow leaf curl virus.
T9 sequence (residues 1-136 of Rep, tag left off): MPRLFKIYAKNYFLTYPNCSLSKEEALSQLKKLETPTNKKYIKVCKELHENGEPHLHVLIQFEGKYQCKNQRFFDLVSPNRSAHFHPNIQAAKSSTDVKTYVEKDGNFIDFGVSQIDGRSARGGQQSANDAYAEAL
The protocol: as §1
In assay [10] the test system is T10, Rep nickase domain of wheat dwarf virus.
T10 sequence (residues 1-137 of Rep, tag left off): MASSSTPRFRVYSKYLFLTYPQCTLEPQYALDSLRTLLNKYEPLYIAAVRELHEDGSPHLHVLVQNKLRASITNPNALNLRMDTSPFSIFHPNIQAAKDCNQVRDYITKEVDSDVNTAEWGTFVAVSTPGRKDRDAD
The protocol: as §1

As to CCAGCAA, the “uncleaved DNA left (log2)” value is 0.00034 in assay [1]; -0.0289 in assay [2]; -0.0351 in [3]; -0.322 in assay [4]; -0.0964 in assay [5]; -0.864 in assay [6]. Moreover, the “uncleaved DNA left (log2)” value in [7] was 0.015; in assay [8] it was 0.116; in assay [9], -0.1; in [10] it was -0.0715.

Take TTCCGAA: the “uncleaved DNA left (log2)” value in assay [1] was found to be 0.114; in assay [2] it was 0.123; in assay [3] it was 0.737; in [4] it was 0.726; in [5], 0.115; in assay [6], 1.41. The “uncleaved DNA left (log2)” value in assay [7] came out at 0.106; in assay [8], 0.0284; in [9], 0.163; in [10], 0.163.

As to AGTGGAG, the “uncleaved DNA left (log2)” value in [1] is 0.101; in assay [2] it was 0.073; in [3], -0.376; in assay [4] it was -0.198; in assay [5], 0.125; in assay [6], -0.63. Further, the “uncleaved DNA left (log2)” value in assay [7] came to 0.322; in assay [8], 0.118; in [9], 0.0673; in assay [10] it was 0.109.

Take TTTATGT: the “uncleaved DNA left (log2)” value in assay [1] is 0.0693; in assay [2], -0.0497; in [3], 0.0528; in assay [4] it was -0.193; in assay [5], -0.0621; in assay [6], -0.635. Further, the “uncleaved DNA left (log2)” value in assay [7] was -0.261; in [8] it was -0.0508; in [9] it was -0.0471; in assay [10], -0.039.

Regarding GGACACG, the “uncleaved DNA left (log2)” value is 0.0648 in [1]; 0.146 in assay [2]; 0.368 in [3]; 1.05 in assay [4]; -0.0246 in assay [5]; 0.611 in assay [6]. Moreover, the “uncleaved DNA left (log2)” value is 0.24 in assay [7], -0.00361 in assay [8], 0.0153 in assay [9] and 0.125 in assay [10].

On to CGGAGTA, for which the “uncleaved DNA left (log2)” value in assay [1] is 0.0248; in [2] it was 0.00215; in assay [3], 0.165; in assay [4] it was 0.0278; in [5], 0.0331; in [6] it was 0.296. Moreover, the “uncleaved DNA left (log2)” value was -0.00552 in assay [7], -0.0339 in assay [8], -0.0756 in [9] and 0.0256 in [10].

Take AGGCACT: the “uncleaved DNA left (log2)” value in assay [1] is 0.076; in [2], 0.0819; in [3], 0.502; in assay [4], 0.728; in assay [5], 0.0242; in assay [6], 1.49. Moreover, the “uncleaved DNA left (log2)” value turned out to be 0.148 in assay [7], 0.0076 in [8], 0.061 in [9] and 0.077 in assay [10].

On to AAGCCAG, for which the “uncleaved DNA left (log2)” value in assay [1] was 0.052; in assay [2], 0.0186; in assay [3] it was -0.314; in assay [4], -0.531; in assay [5] it was -0.0126; in [6], -0.765. In addition, the “uncleaved DNA left (log2)” value in assay [7] amounted to 0.235; in assay [8], 0.131; in assay [9], 0.0357; in assay [10], 0.155.

In the case of GAGAGAC, the “uncleaved DNA left (log2)” value in assay [1] was 0.00879; in assay [2], 0.0373; in assay [3], 0.477; in assay [4], 1.43; in assay [5], -0.000722; in assay [6] it was 1.84. The “uncleaved DNA left (log2)” value in assay [7] amounted to 0.189; in assay [8], 0.0879; in assay [9], 0.0532; in assay [10], 0.143.

On to CAGGCCA, for which the “uncleaved DNA left (log2)” value in assay [1] is 0.0533; in assay [2], 0.208; in [3] it was 0.218; in [4] it was -0.642; in [5], 0.098; in assay [6], 0.178. In addition, the “uncleaved DNA left (log2)” value in assay [7] was -0.0339; in assay [8], 0.168; in assay [9], 0.204; in [10], 0.202.

ATCCACG: the “uncleaved DNA left (log2)” value is -0.0617 in assay [1]; -0.0873 in [2]; -0.965 in assay [3]; -0.195 in assay [4]; -0.127 in assay [5]; -1.13 in [6]. For the same sequence, the “uncleaved DNA left (log2)” value in assay [7] was 0.0691; in [8], -0.0977; in [9], -0.14; in [10] it was -0.252.

Take CGGCGCG: the “uncleaved DNA left (log2)” value in [1] is -0.195; in [2], -0.139; in assay [3] it was -0.679; in assay [4], -0.336; in assay [5], -0.15; in assay [6], -0.842. Further, the “uncleaved DNA left (log2)” value in assay [7] is 0.0103; in assay [8], -0.0371; in assay [9] it was -0.133; in assay [10], -0.221.

ATCATGT: the “uncleaved DNA left (log2)” value in [1] is 0.0219; in assay [2], -0.102; in [3], -0.404; in assay [4], -0.618; in [5], -0.0698; in [6], -1.14. Moreover, the “uncleaved DNA left (log2)” value in assay [7] is 0.0139; in assay [8] it was -0.116; in [9] it was -0.0371; in [10], -0.0524.

AATCCCC: the “uncleaved DNA left (log2)” value in assay [1] was 0.0246; in assay [2], -0.0768; in [3], 0.0587; in assay [4], -0.12; in [5] it was 0.0524; in [6], 0.172. Further, the “uncleaved DNA left (log2)” value in [7] is -2.01; in assay [8], -0.0155; in [9], 0.0931; in assay [10], 0.0798.

With ACATTGC, the “uncleaved DNA left (log2)” value is 0.025 in [1]; -0.0159 in assay [2]; -0.105 in assay [3]; 1.06 in [4]; -0.00521 in assay [5]; 0.506 in assay [6]. Moreover, the “uncleaved DNA left (log2)” value in assay [7] is 0.127; in assay [8], -0.171; in assay [9], 0.148; in assay [10], -0.144.
